# Source: EP0207453B1 (priority 1985, dated 1987)
# Marks after values point to notes of the source that are not given here.
# How the values were obtained:
# [1] = tested on: human rhinovirus (HRV) serotypes, namely HRV-2, -1A, -1B, -6, -14, -21, -22, -15, -25, -30, -50, -67, -89, -86 and -41; assay: standard plaque reduction assay, panel of fifteen human rhinovirus serotypes; assay type: cell-based; conditions: HeLa (Ohio) cells, 15 serotypes unless number N in parentheses after the figure, unit printed in b78 only
# [2] = tested on: HRV-2
structure (smiles),measurement,setting,value
"Cc1cc(CCCCCOc2c(C)cc(-c3cccs3)cc2C)on1 [7(b), 5-{5-[2,6-Dimethyl-4-(2-thienyl)phenoxy]pentyl}-3-methylisoxazole]",MIC₈₀ (N) (Rhinovirus),[1],0.94 micrograms per milliliter
"Cc1cc(CCCCCOc2c(Cl)cc(-c3cccs3)cc2Cl)on1 [Example 1(c), 5-{5-[2,6-Dichloro-4-(2-thienyl)phenoxy]pentyl}-3-methylisoxazole]",MIC₈₀ (N) (Rhinovirus),[1],0.44 micrograms per milliliter
"Cc1cc(CCCCCOc2c(Cl)cc(-c3ccccn3)cc2Cl)on1 [Example 16, 5-{5-[2,6-Dichloro-4-(2-pyridinyl)phenoxy]pentyl}-3-methylisoxazole]",MIC₈₀ (N) (Rhinovirus),[1],0.56 (13) micrograms per milliliter
"Cc1cc(CCCCCOc2c(C)cc(-c3cccn3C)cc2C)on1 [13(b), 5-{5-[2,6-Dimethyl-4-(1-methyl-1H-pyrrol-2-yl)phenoxy]pentyl}-3-methylisoxazole]",MIC₈₀ (N) (Rhinovirus),[2],.07 (1)^(a) micrograms per milliliter
"Cc1cc(CCCCCOc2ccc(-c3nc(C)c(C)s3)cc2)on1 [Example 3, 3-Methyl-5-{5-[4-(4,5-dimethyl-2-thiazolyl)phenoxy]-pentyl}isoxazole]",MIC₈₀ (N) (Rhinovirus),[1],0.57 micrograms per milliliter
"Cc1cc(CCCCCOc2c(C)cc(-c3ccsc3)cc2C)on1 [11(b), 5-{5-[2,6-Dimethyl-4-(3-thienyl)phenoxy]pentyl}-3-methylisoxazole]",MIC₈₀ (N) (Rhinovirus),[1],0.605 (14) micrograms per milliliter
"Cc1cc(CCCCCOc2ccc(-c3cccs3)cc2)on1 [Example 2, 3-Methyl-5-{5-(4-(2-thienyl)phenoxy]pentyl}-isoxazole]",MIC₈₀ (N) (Rhinovirus),[1],1.33 micrograms per milliliter
"Cc1cc(CCCCCOc2ccc(-c3nc4ccccc4s3)cc2)on1 [Example 4, 2-{4-[[5-(3-Methyl-5-isoxazolyl)pentyl]oxy]phenyl}-benzothiazole]",MIC₈₀ (N) (Rhinovirus),[1],2.675 (4) micrograms per milliliter
"Cc1cc(CCCCCOc2c(Cl)cc(-c3nnn(C)n3)cc2Cl)on1 [23 (1st compd.), 5-{5-[2,6-dichloro-4-(2-methyl-2H-tetrazol-5-yl)phenoxy]pentyl}-3-methylisoxazole]",MIC₈₀ (N) (Rhinovirus),[1],0.225 (4) micrograms per milliliter
Cc1cc(CCCCCOc2c(Cl)cc(-c3ccncc3)cc2Cl)on1 [Example 19],MIC₈₀ (N) (Rhinovirus),[1],25.33 (6) micrograms per milliliter
"Cc1cc(CCCCCOc2c(C)cc(-c3ccc(C)s3)cc2C)on1 [9(b), 5-{5-[2,6-Dimethyl-4-(5-methyl-2-thienyl)phenoxy]pentyl}-3-methylisoxazole]",MIC₈₀ (N) (Rhinovirus),[1],25.65 (6) micrograms per milliliter
"Cc1cc(CCCCCOc2c(Cl)cc(-c3nnnn3C)cc2Cl)on1 [Example 23 (2nd compd.), 5-{5-[2,6-dichloro-4-(1-methyl-1H-tetrazol-5-yl)phenoxy]pentyl}-3-methylisoxazole]",MIC₈₀ (N) (Rhinovirus),[2],0.4 (1) ^(a) micrograms per milliliter
"Cc1cc(CCCCCOc2c(C)cc(-c3ccccn3)cc2C)on1 [15(b), 5-{5-[2,6-Dimethyl-4-(2-pyridinyl)phenoxyl]pentyl}-3-methylisoxazole]",MIC₈₀ (N) (Rhinovirus),[1],1.86 (5) micrograms per milliliter
Cc1cc(CCCCCOc2c(Cl)cc(-c3nc(C)c(C)s3)cc2Cl)on1 [21 c],MIC₈₀ (N) (Rhinovirus),[1],0.91 micrograms per milliliter
"Cc1cc(CCCCCOc2ccc(-c3nc4ccccc4o3)cc2)on1 [Example 6, 5-{5-[4-(2-Benzoxazolyl)phenoxy]pentyl}-3-methylisoxazole]",MIC₈₀ (N) (Rhinovirus),[1],0.94 micrograms per milliliter
"Cc1cc(CCCCCOc2c(Cl)cc(-c3ccc(C)s3)cc2Cl)on1 [10(b), 5-{5-[2,6-Dichloro-4-(5-methyl-2-thienyl)phenoxy]pentyl}-3-methylisoxazole]",MIC₈₀ (N) (Rhinovirus),[1],0.7 micrograms per milliliter
"Cc1cc(CCCCCOc2c(Cl)cc(-c3cccn3C)cc2Cl)on1 [Example 14, 5-{5-[2,6-Dichloro-4-(1-methyl-1H-pyrrol-2-yl)phenoxy]-pentyl}-3-methylisoxazole]",MIC₈₀ (N) (Rhinovirus),[1],1.6 micrograms per milliliter
"Cc1cc(CCCCCOc2c(Cl)cc(-c3ccsc3)cc2Cl)on1 [Example 12, 5-{5-[2,6-Dichloro-4-(3-thienyl)phenoxy]pentyl}-3-methylisoxazole]",MIC₈₀ (N) (Rhinovirus),[1],1.14 micrograms per milliliter
"Cc1cc(CCCCCOc2ccc(-c3nccs3)cc2)on1 [Example 20, 3-Methyl-5-{5-[4-(2-thiazolyl)phenoxy]pentyl}-isoxazole]",MIC₈₀ (N) (Rhinovirus),[1],1.2 micrograms per milliliter
